{
  "source": "paper PMC12136788",
  "binders": {"B1": {"name": "chrX:69798090:69798091:-_ENSMUSG00000031343_ENSMUST00000055966|mus_mus|mus_mus_mus_hu_False|48_78 (ssRNA)", "RNA": "GGGAGUUCUACAGUCCGACGAUCAAGUCCCCGGGUUCUUGUCGUCUUGAUUCCCCUUGGCUAGUGGUUCCAGGGAGAAUAUUAAUCAGGAGAAGAAUCCCAAGGCUGGUCAUGUAACAGUGACUUGUUUGUGUGAUUAUCAUCCAACAGAGGAUUGAGCAUCA"}, "B2": {"name": "chr12:42180722:42180723:-_ENSMUSG00000036295_ENSMUST00000043884|mus_hu|mus_mus_mus_hu_True|48_108 (ssRNA)", "RNA": "GGGAGUUCUACAGUCCGACGAUCCUGUAGGAGCAGAAUCUGUGUGUUAGCUGGCAAUCUGGCUGGGAAAGUUAAAAGACCUAAAUCAUUACAGUCCACUGUAGAUGCUUCCAUAUAAAUGGAUCUGGGUGUAAACCAAGGCCUCAACAGAGGAUUGAGCAUCA"}, "B3": {"name": "chr7:56126341:56126342:+_ENSG00000146731_ENST00000540286|hu_mus|hu_hu_hu_mus_True|8_68 (ssRNA)", "RNA": "GGGAGUUCUACAGUCCGACGAUCCAUGUUUCUCCUCUUGGCUCUGCGCAGAGCUACGAUCCCUUCUUUUGAAAGAGCAUCUAAGGAAAAGGGGUCAAUCCCCUUUUGAUUAAUAACGACAAAUCCUUUAUCUGAAUCACCACACAACAGAGGAUUGAGCAUCA"}, "B4": {"name": "chr7:75932113:75932114:+_ENSG00000106211_ENST00000248553|hu_hu|hu_hu_hu_mus_False|18_108 (ssRNA)", "RNA": "GGGAGUUCUACAGUCCGACGAUCCUGCGACCACUCCUCGGGCAACCGGGGCACCCCGAAAGCUUGAUCGAAGAGGCGGCUGUGUGCAGGGUACCAGUCCCGGAAUGGUUCCCAGCUGCCCCGCAGGAGCAGCGAGAAGGGCACCAACAGAGGAUUGAGCAUCA"}, "B5": {"name": "chr7:54823571:54823572:-_ENSG00000132432_ENST00000352861|hu_mus|hu_hu_hu_mus_False|8_98 (ssRNA)", "RNA": "GGGAGUUCUACAGUCCGACGAUCUCCCAUGAUAGCAAAUCCUAUUGCUGUAGCCAUGGCAAUCUUCUGGAAUUCUUUUCUGUCGGGUUUGGUGCAUCUUUUAACCAGCCGAAUUGAGUCCUUUACAAACUGCCGACUGGGCUCCAACAGAGGAUUGAGCAUCA"}, "B6": {"name": "chr6:72301320:72301321:+_ENSMUSG00000058706_ENSMUST00000077783|mus_mus|motif|central (ssRNA)", "RNA": "GGGAGUUCUACAGUCCGACGAUCUCUUUGAGGACCACAUAAACACAUAAAAGGCCUCUGCAGAACACUUUGUUCAUCGGGCGGUUCCUUCAUCAAGAAGUGGGAAUAACGGCAAAUUUGUAGGUGUCGGGUCCUCAGAUUCUUCAACAGAGGAUUGAGCAUCA"}, "B7": {"name": "chr1:122009976:122009977:-_ENSMUSG00000026385_ENSMUST00000027634|mus_hu|FALSE|FALSE (ssRNA)", "RNA": "GGGAGUUCUACAGUCCGACGAUCUUUAAUUGAUUUCAGAUAAAAACUACUCAAGGAAAGUCAGUAAUCGUUUUAGCCCCUAAUCUGUUAGAGCCGUAUGGUGAGCAGCCUUGAGUAGCUGGUUUAACUGGUUAUUUUCCCGAACAACAGAGGAUUGAGCAUCA"}, "B8": {"name": "chr2:91460361:91460362:+_ENSMUSG00000040549_ENSMUST00000099716|mus_hu|FALSE|FALSE (ssRNA)", "RNA": "GGGAGUUCUACAGUCCGACGAUCAUACACUAGGCCUGCUGAGGCCAUUUUAAACUAUGAGGACUUCUAGUUUAGUAAACUAAAGCUGCAGGGUGCCGGGGGAGUGGGGCAGCUUCAUUUGCGACUGCUCUUUAUUCUCUCCAGCAACAGAGGAUUGAGCAUCA"}, "B9": {"name": "118501947_118502067_1989_CDS_ENSG00000019144_ENST00000356063|human|control|control (ssRNA)", "RNA": "GGGAGUUCUACAGUCCGACGAUCAAGGCCUCGUGAGGGCCUCCGGCCUGCCAGUGCCAAUGCUGCGGUGGCCUCCCCAAUGCUGGGAAGCUCCCCAGCCUCAGGUCCCCCAUCAGCCCGGCUGUAUUCGGCACACAGGUUCAGCAACAGAGGAUUGAGCAUCA"}, "B10": {"name": "chr7:141450121:141450122:+_ENSG00000106028_ENST00000265304|hu_mus|hu_hu_hu_mus_True|38_108 (ssRNA)", "RNA": "GGGAGUUCUACAGUCCGACGAUCUCAUCCUUUCUACGCCUUUUCUUUUGUCUGGUCACUCAGAAAUAUAAUGUUAUCAGCUAUGAUUGUUGUUGCUUGUCGCCUCACAUUGUUUUUAUCCAUGUACUCGCCAUAGUCCACUUUCAACAGAGGAUUGAGCAUCA"}, "B11": {"name": "chr4:148551591:148551592:-_ENSMUSG00000063077_ENSMUST00000060537|mus_hu|mus_mus_mus_hu_False|8_28 (ssRNA)", "RNA": "GGGAGUUCUACAGUCCGACGAUCACCUGACAAAAUUAAAUAUCCCUGUAAAUUAGACAAUAAGCAGCAGGCAACAAAGUCUUUGCUUUGGAAUAUGUGCCAGGAAAAAUCAUGUUUUUUUUAGAUCACACCUUUCAGUUCACACAACAGAGGAUUGAGCAUCA"}, "B12": {"name": "chr9:131455196:131455197:+_ENSG00000119335_ENST00000372688|hu_hu|motif|central (ssRNA)", "RNA": "GGGAGUUCUACAGUCCGACGAUCAAAUUCUUUGGAGAGAACUUUAUUUUCAAAGUAAGGAUUUUCAUCAAAAUAAAAAUCGGUUCUGUAACCUGAUUUAAUAUCUUCAAAUUCUGUCACUUCAACUCUGGUCAAAUAAUGCAGCAACAGAGGAUUGAGCAUCA"}, "B13": {"name": "chr8:95500983:95500984:-_ENSG00000164944_ENST00000437199|hu_hu|hu_hu_hu_mus_True|18_88 (ssRNA)", "RNA": "GGGAGUUCUACAGUCCGACGAUCAGAACACAUCUAUCGAGUAAAGGGAGCGUACAUACGGCCUCUACCACUGCCUCCACUAACAAACUUUCCUCUCGAGCCUCCACUGCCGCUAUUUUGCACUAGCCAGGACGGUCCCAGGCCCAACAGAGGAUUGAGCAUCA"}, "B14": {"name": "chr15:52844276:52844277:-_ENSG00000128989_ENST00000249822|hu_mus|FALSE|FALSE (ssRNA)", "RNA": "GGGAGUUCUACAGUCCGACGAUCAUCCGGGGCUGCAGCAGGAAGCUGCUUGUUCUUCAUCUUUGCUUUUGCCAUGUUGUAGUCCCCAGAAUCAAAAUACUUUUGCCCUUUCUGCAAUCUUUUCCUUAAAAAAUCAGACCCUCCCAACAGAGGAUUGAGCAUCA"}, "B15": {"name": "chr19:41288738:41288739:-_ENSMUSG00000025016_ENSMUST00000025989|mus_mus|FALSE|FALSE (ssRNA)", "RNA": "GGGAGUUCUACAGUCCGACGAUCUGGGGGAGGGAGGGGAAGAUAAUCACUUUAGACAUUCAGUUAAAAUGUAAAUUAUCUAAAUCUCCAAAUGUUUAAUAAAAACAAGCAUCUUCUCCAUUUAACACUUCGCUUGCUAACUGUCAACAGAGGAUUGAGCAUCA"}, "B16": {"name": "chr1:39494447:39494448:+_ENSG00000168653_ENST00000372967|hu_hu|FALSE|FALSE (ssRNA)", "RNA": "GGGAGUUCUACAGUCCGACGAUCGCAUCGACCAGCCAUCUUGUAGGGCUGUUCACCACUCUGGAUUGUCAACCAUCGAUCUAUGUUAAGGCCGAACCUUUUCUGGAUGUCCAAGAAAGGCAUGGCCGAUGCUCGUGCCCUUGACAACAGAGGAUUGAGCAUCA"}, "B17": {"name": "chr4:123032474:123032475:-_ENSMUSG00000028649_ENSMUST00000154824|mus_hu|FALSE|FALSE (ssRNA)", "RNA": "GGGAGUUCUACAGUCCGACGAUCGUGAGCGGAAGGGGGUCAUUCCCUGGGAUGCUCCCUCUGGUAGGAUGAAUUUCUCUCUAAGUUCAAUGUUAGUUCUACCUCGUGCUCGGCAGGGAUCAUUUUUCACUAAAAAUUCAUCCACAACAGAGGAUUGAGCAUCA"}, "B18": {"name": "chrX:17825403:17825404:+_ENSMUSG00000037369_ENSMUST00000044484|mus_mus|FALSE|FALSE (ssRNA)", "RNA": "GGGAGUUCUACAGUCCGACGAUCCCAUGAAUGAGUUUGUUGUUCUACUGGAGGUGGUGCAUUGCCACCACUCCAAUUAUCAGAAGUAUUCUGCUGUGCUGUGUUCAUGGCACCCUGCCUGGAGGUAAGCUCUGCGGGGAUUGGCAACAGAGGAUUGAGCAUCA"}, "B19": {"name": "chr18:56819859:56819860:+_ENSG00000166562_ENST00000588875|hu_mus|hu_hu_hu_mus_True|8_88 (ssRNA)", "RNA": "GGGAGUUCUACAGUCCGACGAUCAACCUUGAUUACUCUGUGAACUAUUGGAAUGUCUCUUCCUUCAACCUUAAAAACAACUAUUUCACCAGCUCUGAUGGGGUCCUCCCGGAAAUUCGUGAGGAACAGGAGGUCUCCUCUGUGCAACAGAGGAUUGAGCAUCA"}, "B20": {"name": "chr4:47484081:47484082:-_ENSMUSG00000039740_ENSMUST00000044148|mus_hu|motif|central (ssRNA)", "RNA": "GGGAGUUCUACAGUCCGACGAUCCAUUAUACUAUGAAGCCAAAUUAAUCAACUUUGAUAAUGAUACACACUUAAACGGUGAAAACCAAUUAAGGCACAGUAUCAUUCAAAAUUUAUAGACAGAAGAGCAAUAAUCCCGAGAAACAACAGAGGAUUGAGCAUCA"}, "B21": {"name": "chr2:131005039:131005040:-_ENSMUSG00000068267_ENSMUST00000089510|mus_hu|FALSE|FALSE (ssRNA)", "RNA": "GGGAGUUCUACAGUCCGACGAUCGUACCAUAGACUGGUCUCGGUGGCGCUGAACACGUCCUGCGAGGCGUAGCCCUCGGCCACCGACGGCGGCUGCUCCUCCCGAGCGCGCCAACCAGUAGUGCUCCCGCCACUGCCCUCCGACAACAGAGGAUUGAGCAUCA"}, "B22": {"name": "chr17:45747064:45747065:+_ENSG00000108424_ENST00000290158|hu_hu|FALSE|FALSE (ssRNA)", "RNA": "GGGAGUUCUACAGUCCGACGAUCGCCUACAGUCCAUGCAGCUGUAUCUCGAACAACUACACUGGGGUCUUUCAUUAAUUCUAUUAGGGUGGGCAUAGCCUGUAUAACUAGUGGUUUGAGCUGACUGGGCUCUGGUCCUUCCAACAACAGAGGAUUGAGCAUCA"}},
  "note": "This is one part of the list.",
  "data": [
    {"target": "T1, UNK ZnF1-3 (human, UniProt Q9C0B0 31-174)", "T1 sequence": "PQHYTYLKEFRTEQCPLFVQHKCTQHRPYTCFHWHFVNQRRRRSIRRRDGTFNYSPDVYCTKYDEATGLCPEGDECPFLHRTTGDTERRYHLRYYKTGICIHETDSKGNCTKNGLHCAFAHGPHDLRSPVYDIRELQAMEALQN", "experiment": "nsRBNS (natural sequence RNA bind-n-seq); RBNS binding buffer (assumed for nsRBNS): 25 mM Tris pH 7.5, 150 mM KCl, 3 mM MgCl2, 0.01% Triton X-100, 500 ug/ml BSA, 20 U/ml SUPERase-In, 4 C; UNK is unkempt and MSI1 is Musashi-1; names of the RNAs are library labels; protein concentration not given here; high values mean tight binding", "units": {"binding signal": "enrichment R"}, "values": [
      {"binder": "B1", "binding signal": 0.648},
      {"binder": "B2", "binding signal": 1.09},
      {"binder": "B3", "binding signal": 1.67},
      {"binder": "B4", "binding signal": 0.914},
      {"binder": "B5", "binding signal": 0.597},
      {"binder": "B6", "binding signal": 0.821},
      {"binder": "B7", "binding signal": 0.61},
      {"binder": "B8", "binding signal": 0.635},
      {"binder": "B9", "binding signal": 0.995},
      {"binder": "B10", "binding signal": 0.386},
      {"binder": "B11", "binding signal": 1.02},
      {"binder": "B12", "binding signal": 0.575},
      {"binder": "B13", "binding signal": 1.41},
      {"binder": "B14", "binding signal": 0.637},
      {"binder": "B15", "binding signal": 1.32},
      {"binder": "B16", "binding signal": 0.713},
      {"binder": "B17", "binding signal": 0.609},
      {"binder": "B18", "binding signal": 0.656},
      {"binder": "B19", "binding signal": 0.779},
      {"binder": "B20", "binding signal": 0.812},
      {"binder": "B21", "binding signal": 0.363},
      {"binder": "B22", "binding signal": 1.11}
    ]}
  ]
}
